Measurements published in PubChem BioAssay AID588342 (National Center for Advancing Translational Sciences (NCATS), 2011).
Out of some 360,000 compounds screened, about 25,000 (6.9%) were called active. The inconclusive results got no clear call from the source; some entries with a clear call stand among them for comparison. The call rests on the fitted dose curve; in most records, active means well fitted inhibition curve with a large enough effect; inconclusive means small, poorly fitted or top-dose-only effect; inactive means flat fitted curve, though single readings scatter. Potencies of inconclusive entries are doubtful fits and often do not repeat.

The compounds below were run against Luciferin 4-monooxygenase (Photinus pyralis) (UniProt P08659) (assay: qHTS profiling assay for firefly luciferase inhibitor/activator using purifed enzyme and Km concentrations of substrates (counterscreen for miR-21 project)). Conditions: purified FLuc, luminescence inhibition; series mostly up to 57.5 µM; activity change, negative = inhibition: at the top concentration.
In short: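 Purified P. pyralis luciferase, 10 nM final, with Km-level 10 uM D-luciferin and 10 uM ATP in 50 mM Tris acetate pH 7.5, 10 mM Mg acetate, 0.01% Tween-20, 0.05% BSA; 6-point qHTS titration about 60 µM downward; luminescence read.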
Further: nearly all actives have a fitted effect of over 55% in size.
Potency means the concentration at half of the fitted maximal effect; tags describe the fitted curve by direction and shape.
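Wherever activity change, negative = inhibition is given: plate controls were vehicle for no effect and reference inhibitor for full effect.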

Chain of UniProt P08659 (P08659 whole entry, looked up): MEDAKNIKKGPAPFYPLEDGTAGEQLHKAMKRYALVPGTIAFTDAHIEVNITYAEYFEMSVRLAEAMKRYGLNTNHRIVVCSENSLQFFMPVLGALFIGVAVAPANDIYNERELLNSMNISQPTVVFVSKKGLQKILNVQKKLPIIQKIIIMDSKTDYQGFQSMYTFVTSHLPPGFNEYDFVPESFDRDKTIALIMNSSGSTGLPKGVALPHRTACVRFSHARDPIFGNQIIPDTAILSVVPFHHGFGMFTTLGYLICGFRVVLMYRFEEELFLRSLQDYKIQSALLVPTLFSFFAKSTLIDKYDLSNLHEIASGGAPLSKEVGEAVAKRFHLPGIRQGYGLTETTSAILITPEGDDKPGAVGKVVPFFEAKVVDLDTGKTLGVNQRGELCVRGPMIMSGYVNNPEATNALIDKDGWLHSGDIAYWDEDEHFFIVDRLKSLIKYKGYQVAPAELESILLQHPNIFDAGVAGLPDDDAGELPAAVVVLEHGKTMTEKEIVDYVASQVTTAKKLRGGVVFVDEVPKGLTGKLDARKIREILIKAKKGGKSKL

Row | Structure (SMILES) | activity change, negative = inhibition | Potency
1 | Cc1n[nH]c(=O)c2c(NC(=O)COC(=O)Cc3ccc(Cl)cc3Cl)oc(C)c12 | inactive: 1.78% | 
2 | COc1ccc(CNC(=O)CCCN2C(=O)CSc3c2c(C)nn3-c2ccccc2)cc1 | inactive: -3.4% | 
3 | CC(C)(C)c1cc[n+](/C(C(=S)Nc2ccccc2F)=C(/[O-])c2ccc3c(c2)OCCO3)cc1 |  | inconclusive: 26.9 µM [inhibitor, partial curve, poor fit]
4 | CC(C)(C)c1ccc(-c2nnc3sc(-c4ccncc4)nn23)cc1 |  | inconclusive: 12 µM [inhibitor, partial curve]
5 | Cc1ccc(/C=C/C(=O)NCc2ccc(S(N)(=O)=O)cc2)o1 |  | inconclusive: 30.1 µM [inhibitor, single point]
6 | CN=C(NC1CCCCC1)c1ccc(Cl)cc1 | inactive: -1.19% | 
7 | O=C(O)COc1ccc(C(=O)c2ccccc2)cc1 |  | inconclusive: 37.9 µM [inhibitor, partial curve, poor fit]
8 | COc1ccccc1/C=C/C=N/NC(=O)CCn1cnc2ccccc21 |  | inconclusive: 26.9 µM [inhibitor, single point]
9 | CC(C)COn1c(=S)[nH]c2ccccc2c1=O |  | active: 21.3 µM
10 | CCOC(=O)N1CCN(C(=O)c2cn(C)c3ccc(S(=O)(=O)N4CCOCC4)cc3c2=O)CC1 | inactive: 4.36% | 
11 | Cc1ccc(Cn2c(C(=O)NCc3ccccc3Cl)cc3sccc32)cc1 | inactive: -8.77% | 
12 | COC(=O)c1c(SCC(=O)Nc2cc(OC)cc(OC)c2)[nH]c2ccc(C)cc2c1=O | inactive: -13.3% | 
13 | Cc1cccc(NC(=O)CSc2nnc3[nH]c(=O)cc(-c4ccccc4)n23)c1C |  | active: 3.01 µM
14 | Cc1nc(NC(=O)CCc2ccccc2)sc1C |  | active: 16.9 µM
15 | CC(=O)c1ccc(OCc2cc(C(=O)N3CC4C[C@@H]5CC3C[C@H](C4)C5)no2)cc1 |  | active: 9.53 µM
16 | O=C(O)c1c(NC(=O)N2CCCC2)sc2c1CCCC2 |  | inconclusive: 37.9 µM [inhibitor, single point]
17 | CN1CCN(/N=C/c2ccc(-c3ccc([N+](=O)[O-])cc3)o2)CC1 |  | inconclusive: 26.9 µM [inhibitor, single point]
18 | Cc1cc(OCCCCCNCCO)ccc1Cl | inactive: -11% | 
19 | CCCOc1cccc(C(=O)Nc2cccc3cccnc23)c1 |  | inconclusive: 21.3 µM [inhibitor, partial curve]
20 | CC(C)Cn1c(/C=N/Nc2nc3ccccc3[nH]2)nc2ccccc21 |  | inconclusive: 6.75 µM [inhibitor, partial curve, poor fit]
21 | O=CN/C=C/c1cc(O)ccc1O |  | inconclusive: 23.9 µM [inhibitor, partial curve, poor fit]
22 | COc1ccc(-c2nc3ccc(NS(=O)(=O)c4ccc(C)cc4)cc3o2)cc1 |  | inconclusive: 12 µM [inhibitor, partial curve]
23 | O=C(/C=C/c1ccccc1[N+](=O)[O-])c1ccccc1Br |  | inconclusive: 26.9 µM [inhibitor, partial curve]
24 | CNc1ncc(C(=O)c2ccc(Cl)c(Cl)c2)s1 |  | inconclusive: 9.53 µM [inhibitor, partial curve, poor fit]

Row | Structure (SMILES) | activity change, negative = inhibition | Potency
25 | CCOC(=O)c1sc(NC(=O)CC2OC(=O)c3ccccc32)nc1C (configuration not stated) |  | inconclusive: 21.3 µM [inhibitor, partial curve, poor fit]
26 | CC(OC(=O)c1ccccc1Nc1ccc(SC(F)F)cc1)C(N)=O (configuration not stated) |  | inconclusive: 37.9 µM [inhibitor, partial curve, poor fit]
27 | COc1ccc(C2=C(C)C(=O)N(Cc3ccc(C(=O)NCc4cccc(C)c4)cc3)S2(=O)=O)cc1 | inactive: -6.05% | 
28 | Cc1ccc(/C=N/NC(=O)c2ccc(-c3ccccc3)cc2)o1 |  | inconclusive: 30.1 µM [inhibitor, partial curve, poor fit]
29 | CCCC(C)NC(=O)c1cccc(Oc2ccccc2)c1 (configuration not stated) |  | inconclusive: 26.9 µM [inhibitor, single point]
30 | O=C(COc1ccc(F)cc1)Nc1ccc2nc(SCC(=O)N3CCOCC3)sc2c1 |  | inconclusive: 26.9 µM [inhibitor, partial curve]
31 | COc1ccc(-c2noc(COc3cc(C)ccc3C)n2)cc1OC | inactive: -9.98% | 
32 | CC(C)(C)OC(=O)N/N=C/c1c[nH]c2ccccc12 |  | active: 9.53 µM
33 | COc1ccc2cnn(-c3ccccc3C)c(=O)c2c1OC |  | inconclusive: 4.78 µM [inhibitor, partial curve, poor fit]
34 | Cc1cc(C(=O)Nc2sc3c(c2C#N)CCC(C(C)(C)C)C3)no1 (configuration not stated) |  | inconclusive: 13.5 µM [inhibitor, single point]
35 | O=C1CNC(=S)N1c1nc2ccccc2s1 |  | active: 16.9 µM
36 | O=C(NCc1cccc(Cl)c1)c1ccc2nc(N3CCCCC3)sc2c1 |  | inconclusive: 9.53 µM [inhibitor, partial curve, poor fit]
37 | N#C/C(=C\c1ccc(O)c(O)c1)C(=O)Nc1cccc2ncccc12 |  | inconclusive: 23.9 µM [inhibitor, single point]
38 | COc1ccc(C(=O)Oc2cccnc2)cc1 | inactive: -17.1% | 
39 | CC(/C=N/NC(=O)c1cccs1)=C\c1ccco1 |  | active: 6.01 µM
40 | CSc1ccccc1NC(=O)COc1ccc(Cl)cc1 |  | inconclusive: 21.3 µM [inhibitor, single point]
41 | COc1ccccc1N1CCN(/N=C/c2cc(OC)c(O)c(OC)c2)CC1 |  | inconclusive: 37.9 µM [inhibitor, partial curve, poor fit]
42 | Cc1c(CC(=O)N[C@@H](C)C(=O)O)c(=O)oc2cc3c(cc12)CCC(C)(C)O3 |  | inconclusive: 16.9 µM [inhibitor, partial curve]
43 | COc1cc(/C=C2\SC(=S)N(NS(=O)(=O)c3ccc(C)cc3)C2=O)ccc1O |  | active: 21.3 µM
44 | CC(=O)c1cccc(N2C(=NC(=O)C3CC3)SC3CS(=O)(=O)CC32)c1 (configuration not stated) | inactive: 0.976% | 
45 | O=C(CC1SC(=Nc2ccc(OC(F)F)cc2)N(CCC2=CCCCC2)C1=O)Nc1ccccc1F (configuration not stated) | inactive: 1.06% | 
46 | CC1CCc2sc(C(=O)N/N=C/c3ccc([N+](=O)[O-])cc3)cc2C1 (configuration not stated) | inactive: 4.68% | 
47 | O=P(COCCCCCOCP(=O)(c1ccccc1)c1ccccc1)(c1ccccc1)c1ccccc1 | inactive: 4.8% | 
